The source of these data is PubChem BioAssay (NCI).

Molecules are shown by their SMILES.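 All cell lines were grown in 96-well plates and treated with compound for 48 hours. GI50 marks 50% less growth.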 For part of its entries the source gives two or more results. Only these are listed. An entry can have further records. For part of these data: A record mostly stands for its own series of concentrations, not given here; some values may only mark the edge of a range. For part of these data: The records of an entry repeat one measurement across runs, samples, wells, individuals or studies. Records carry a tag for their origin. The letters are not those of the source and start again with each entry.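 TGI denotes the concentration required for complete inhibition of growth.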

Among the test systems are 786-0 renal; CCRF-CEM leukemia; HOP-62 NSCLC; HS 578T breast; K-562 leukemia; OVCAR-3 ovarian; SR leukemia; HOP-92 NSCLC; SK-MEL-28 melanoma; SNB-75 CNS; COLO 205 colon; EKVX NSCLC.
What all share (assay): NCI tumour cell line growth inhibition, 48 h

`CC(C)C[C@@H](NC(=O)[C@@H](Cc1ccccc1)NC(=O)c1cnccn1)B1O[C@H]2[C@H](O)[C@@H](C(=O)NCCCC[C@@H]3NC(=O)[C@@H](Cc4ccccc4)NC(=O)[C@H](CC(=O)O)NC(=O)CNC(=O)[C@H](CCCN=C(N)N)NC3=O)O[C@@H](CN)[C@H]2O1`: the TGI with 786-0 renal is 57.4 nM and 2.06 µM; in the test on CCRF-CEM leukemia, 146 nM and > 50 µM; with HOP-62 NSCLC it was 46.6 nM and 524 nM; with HS 578T breast it was 105 nM and > 50 µM; with K-562 leukemia it was 118 nM and > 50 µM.

Consider `COc1ccc(C(=O)/C=C/c2ccc(O)c(O)c2F)c(OC)c1`, for which the TGI in the test with OVCAR-3 ovarian was 3.77 µM and 43.2 µM; in the test with SR leukemia, 75 µM and 3.4 µM.

For the molecule `COC(=O)/C=C/c1cc(O)c2c(c1)C(C(=O)OC)C(c1ccc(O)c(O)c1)O2` (stereo not given), the GI50 was 5.51 µM [sample A, mean of 2 tests] and 266 nM [sample B, 1 test] in the test on HOP-92 NSCLC; 174 nM [sample A, mean of 2 tests] and 2.63 µM [sample B, 1 test] with SK-MEL-28 melanoma; 389 nM [sample A, mean of 2 tests] and 35.4 nM [sample B, 1 test] with SNB-75 CNS. Moreover, the TGI with OVCAR-3 ovarian was 19.3 µM [sample A] and 120 nM [sample B].

For the molecule `CCC/C(=N\NC(=S)N1CCN(c2ccccn2)CC1)c1ccccn1`, the TGI is 43.5 nM and 1.35 µM in the test on COLO 205 colon; 216 nM and 2.43 µM with EKVX NSCLC; > 10 µM and 743 nM in the test with HOP-92 NSCLC. Besides, the GI50 in the test on SNB-75 CNS is 396 nM and 23.8 nM.
